# Data from paper PMC12136788.
# The other results are listed elsewhere or left out.
# B1: chr2:45599705:45599806:-|CDS|ENSG00000068784|msi1|total|mutant (ssRNA)
# RNA: GGGAGUUCUACAGUCCGACGAUCCUCAUAUGUUCUCUUUGUGGUUUGACCGAACCGCUCUGUGGCUAUUGCUGAUACUGCUUCCGAAGACAGAAAAAAUAAAUUGGAUACUGUACAGACUCUGAAAACAGCCAAGACAAAACACAACAGAGGAUUGAGCAUCA
# B2: chr4:52020705:52023956:-|three_prime_utr|ENSG00000163069|control|control|control (ssRNA)
# RNA: GGGAGUUCUACAGUCCGACGAUCGUGAUAACUCAUAAUUAUUUUAAUGGCAGAGCACUGCUGUAUCUGUUUUAUGGUCUACAUAGUUAAAAUCUUCUCAGAGAGCCUAAAUUCUAAUACAUUUUAUUAAUUUAUACUAAUCUUCAACAGAGGAUUGAGCAUCA
# B3: chr15:88464702:88464876:-|CDS|ENSG00000259494|control|control|control (ssRNA)
# RNA: GGGAGUUCUACAGUCCGACGAUCUGAUGAAAAGAAUGACCGAACAUCCCUGAACAGGAAGCUAGACAGGAACCUUGUCCUGUUAGUCAGAGAGAAGUUUGGAGACCAGGAUGUUUGGAUACUGCCCCAGGCAGAGUGGCAGCCCAACAGAGGAUUGAGCAUCA
# B4: ENSG00000198589:be:win_9101|3pUTR|ENSG00000198589|bound_else_gene|NA|bound_elsewhere_windowed (ssRNA)
# RNA: GGGAGUUCUACAGUCCGACGAUCUUCAAGCAUGUUUUAGACCUAGAAAAGUAUGGUUUGGGGGAGGCUAUUUUAUUGUGUGGUUAGCACAAGGAAUCUAAUUUAUAGCAAGUGUGAAAUAGUUACCAUUUUUUCCUGAUCUGUCAACAGAGGAUUGAGCAUCA
# B5: chr4:55904547:55904648:+|3pUTR|ENSG00000090989|msi1|total|mutant (ssRNA)
# RNA: GGGAGUUCUACAGUCCGACGAUCAAAAUACCAAGCAACUGUUUUGAGAACCCAGACUUAAAAUUUUAUGUAUUAUUAAAUGUCCGAUAAAUGGGCCGUACCAUACUACAAAUAUUUAAAUGCAAAAUUACCAACCUAUACCGCCAACAGAGGAUUGAGCAUCA
# B6: chr5:37333503:37333606:-|CDS|ENSG00000113569|unk|FALSE|unique (ssRNA)
# RNA: GGGAGUUCUACAGUCCGACGAUCGAUGACAGCUGGUGUUGAUGGUCAUUCCUGGGCUCUUUCUGCGAUAGAUGAAUUGAAAGUAGAUAAAAUAAUUACACCUUUAAACAAGGAUCAUAUUCCAAUAACUGAUUCACCAGUUGUCAACAGAGGAUUGAGCAUCA
# B7: chr14:100883672:100883793:-|CDS|ENSG00000254656|unk|FALSE|unique (ssRNA)
# RNA: GGGAGUUCUACAGUCCGACGAUCUCUAUUCCGGGUCCCUCAGCCGGAUUCCCUAGACAGUCUGAUUGUGCUCAUCCUGCAAAUAGAAGAGAAGCUGGCAGAGAGAAGAGCUAUGCUCAGGCUGCCCCCCGAGGCCCGCCCCCGCAACAGAGGAUUGAGCAUCA
# B8: chr12:74541195:74541296:+|3pUTR|ENSG00000253719|msi1|total|mutant (ssRNA)
# RNA: GGGAGUUCUACAGUCCGACGAUCUGGGGGAAGGGGGGGGUUCUUUAAAAUUUCUGUGGUUUGUGGCUUUUUCUUCCAUACAUCCGUUCCCACCAUCGCAUGCCCAGGGACCACUGCCUGGCAUUAUCGCAUGCUGGGAUCAUCCAACAGAGGAUUGAGCAUCA
# B9: chr8:48920054:48920155:-|CDS|ENSG00000019549|unk|total|mutant (ssRNA)
# RNA: GGGAGUUCUACAGUCCGACGAUCACCUAUUCAACUUUUUCUGGGCUGGCCAAACAUAAGCAGCUGCACUGCGAUGCCCAGUCCCGAAAAUCUUUCAGCUGUAAAUACUGUGACAAGGAAUAUGUGAGCCUGGGCGCCCUGAAGCAACAGAGGAUUGAGCAUCA
# B10: ENSG00000130764:stop:overlap|stop_codon|ENSG00000130764|stop_codon|NA|stop_codon (ssRNA)
# RNA: GGGAGUUCUACAGUCCGACGAUCCAGGGUACAAAGAAAGCAUUCUCUUUCCAAAGGAGACGUUGUGGAACCAGUCUGUCAUCUAGAUGGCCCUGACGUGAGGGAAGUGGAAGGUGUUAGGAGCGGAGAUACCUUCACUUGCUGCAACAGAGGAUUGAGCAUCA
# B11: chr5:178185721:178187299:-|CDS|ENSG00000244234|control|control|control (ssRNA)
# RNA: GGGAGUUCUACAGUCCGACGAUCAGCAUAGCAUUUAGAUUACGCUUGGCUUCUUUUGAUAGUAGUGGAAAACUAGUAUGUAGUAGAACAACUGGCUAUCAAAUACUUAUACUUAAAAAGGAUCAGGAACAAGUGGUGAUGAACCAACAGAGGAUUGAGCAUCA
# B12: chr19:14119889:14120036:-|3pUTR|ENSG00000105011|msi1|FALSE|unique (ssRNA)
# RNA: GGGAGUUCUACAGUCCGACGAUCAGCAGACCCACUCCAGCUUUCUGGUGUCACAGGCGGGAAUGUUAGUUAGUAGGUAGACUUAGAUCCCAUUUCUGUCCUGCUCCCAGGAAGAUUCUUAGGUCCUCUUCAAUCCAGCAGCCCCAACAGAGGAUUGAGCAUCA
# B13: chr19:9526975:9527076:-|3pUTR|ENSG00000130818|unk|FALSE|unique (ssRNA)
# RNA: GGGAGUUCUACAGUCCGACGAUCCCUCUCAGACCUUCCAUCAUUACUAUAUUUCACUUUUAUGCCUAUAAACACACACAAAUUAGCAUAUGUAAUCUAAUACAUUGUAGCUAUUUUUCAGAAGUUAUCAGAUCAAUUAAGUAUCAACAGAGGAUUGAGCAUCA
# B14: chr15:39595431:39595532:+|3pUTR|ENSG00000137801|msi1_unk|FALSE|overlapping (ssRNA)
# RNA: GGGAGUUCUACAGUCCGACGAUCCCCCAGGAUCACUUCUCCUUGGCUUCCUUCUUUUCUGUGCUUGCAUCAGUGUGGACUCCUAGAACGUGCGACCUGCCUCAAGAAAAUGCAGUUUUCAAAAACAGACUCAGCAUUCAGCCUCAACAGAGGAUUGAGCAUCA
# Target: T1, UNK ZnF1-6 (called full-length) (human, UniProt Q9C0B0 30-357)
# T1 sequence: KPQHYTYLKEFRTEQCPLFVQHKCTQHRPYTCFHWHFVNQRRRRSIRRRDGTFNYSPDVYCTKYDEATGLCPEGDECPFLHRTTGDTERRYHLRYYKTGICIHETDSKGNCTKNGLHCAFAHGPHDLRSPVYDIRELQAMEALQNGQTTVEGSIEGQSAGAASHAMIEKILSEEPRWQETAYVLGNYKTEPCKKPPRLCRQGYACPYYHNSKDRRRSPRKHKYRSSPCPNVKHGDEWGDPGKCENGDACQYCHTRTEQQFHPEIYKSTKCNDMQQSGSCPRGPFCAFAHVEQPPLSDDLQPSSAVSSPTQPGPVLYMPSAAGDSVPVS
# Test: nsRBNS (natural sequence RNA bind-n-seq); RBNS binding buffer (assumed for nsRBNS): 25 mM Tris pH 7.5, 150 mM KCl, 3 mM MgCl2, 0.01% Triton X-100, 500 ug/ml BSA, 20 U/ml SUPERase-In, 4 C; UNK is unkempt and MSI1 is Musashi-1; names of the RNAs are library labels; protein concentration not given here; high values mean tight binding
row,Binder,binding signal [enrichment R]
1,B1,0.362
2,B2,10.6
3,B3,0.61
4,B4,2.96
5,B5,1.06
6,B6,5.84
7,B7,0.977
8,B8,1.06
9,B9,0.712
10,B10,0.633
11,B11,1.25
12,B12,3.78
13,B13,4.62
14,B14,0.66
